Structures can show the parent of a compound that is named as a salt. Some of the results follow.

The assay deals with Schistosoma mansoni schistosomula. Briefly: phenotypic hit in primary schistosomula screen (any phenotype vs DMSO control) (binary (1 = hit, 0 = no phenotype)); higher = active (phenotype induced). As to conditions: 1 µM; time (d): 7.
As to `CO[C@@H]1C[C@H](O[C@H]2CC[C@]3(C)[C@H]4CC[C@]5(C)[C@@H](C6=CC(=O)OC6)CC[C@]5(O)[C@@H]4CC[C@]3(O)C2)O[C@H](C)[C@H]1O` [periplocymarin], the phenotypic hit was inactive: 0. As for `CN1C[C@H](CNC(=O)OCc2ccccc2)C[C@@H]2c3cccc4c3c(cn4C)C[C@H]21` [metergoline], the phenotypic hit was inactive: 0. On to `Oc1ccc2c3c1O[C@H]1[C@@H](O)CC[C@@]4(O)[C@@H](C2)N(CC2CCC2)CC[C@]314` [nalbuphine hydrochloride], for which the phenotypic hit was inactive: 0.

Take `CC(=O)O[C@@H]1CC2C(C)(C)[C@H](O)C=C[C@]2(C)C2CC[C@]3(C)C(=CC(=O)O[C@H]3c3ccoc3)[C@@]21C` (stereo partly drawn) [3-alpha-hydroxydeoxygedinin]: the phenotypic hit is inactive: 0. As for `O=C(O)CC[N+](=O)[O-]` [bovinocidin (3-nitropropionic acid)], the figure is inactive: 0. For the molecule `C/C=C/c1ccc2c(c1)OCO2` [isosafrole], the phenotypic hit is inactive: 0.

As to `CN1CCc2cc3c(cc2[C@H]1[C@@H]1OC(=O)c2c1ccc1c2OCO1)OCO3` [bicuculline (+)], the phenotypic hit is inactive: 0. In the case of `CC1C=CC=CCCC=CC=CC=CC=CC(OC2OC(C)C(O)C(N)C2O)CC2OC(O)(CC(O)C(O)CCC(O)CC(O)CC(O)CC(=O)OC(C)C(C)C1O)CC(O)C2C(=O)O` (configuration not stated) [nystatin], the phenotypic hit was inactive: 0. With `CC(=O)O[C@H]1CC[C@@]2(C)[C@H](CC[C@@H]3[C@@H]2CC[C@]2(C)[C@@H](C4=CC(=O)OC4)[C@@H](OC(C)=O)C[C@]32O)C1` [gitoxigenin diacetate], the phenotypic hit was inactive: 0.

`N#C[C@H](O[C@@H]1O[C@H](CO[C@@H]2O[C@H](CO)[C@@H](O)[C@H](O)[C@H]2O)[C@@H](O)[C@H](O)[C@H]1O)c1ccccc1` [amygdalin]: the phenotypic hit was inactive: 0. For the molecule `COc1cc2c(c(OC)c1OC)-c1ccc(OC)c(=O)cc1[C@@H](NC(C)=O)CC2` [colchicine], the phenotypic hit was active: 1.

With `C[C@]12CC[C@H](O)CC1=CC[C@@H]1[C@@H]2CC[C@]2(C)C(=O)CC[C@@H]12` [dehydroepiandrosterone], the phenotypic hit is inactive: 0. On to `CC(C)Nc1nc(Cl)nc(NC(C)C)n1` [propazine], for which the phenotypic hit is inactive: 0. As to `N#Cc1c(Cl)c(Cl)c(Cl)c(C#N)c1Cl` [tetrachloroisophthalonitrile], the phenotypic hit was inactive: 0. On to `O=S1OCC2C(CO1)C1(Cl)C(Cl)=C(Cl)C2(Cl)C1(Cl)Cl` (configuration not stated) [endosulfan], for which the phenotypic hit is inactive: 0. Turning to `CCCCSP(=O)(SCCCC)SCCCC` [s,s,s,-tributylphosphorotrithioate], the phenotypic hit was inactive: 0. For `CC[N+]1(C)CCCC(OC(=O)C(O)(c2ccccc2)c2ccccc2)C1` (configuration not stated) [pipenzolate bromide], the phenotypic hit is inactive: 0.

For `CC1=C2C(=CO[C@H](C)[C@H]2C)C(O)=C(C(=O)O)C1=O` [citrinin], the phenotypic hit is inactive: 0.

On to `COc1cc2c(cc1OC)[C@@H]1C(=O)c3ccc4c(c3O[C@@H]1CO2)CC(C(C)C)O4` (some centres not stated) [dihydrorotenone], for which the phenotypic hit was active: 1. Turning to `CCC1(C2=NCCN2)Cc2ccccc2O1` (configuration not stated) [efaroxan], the phenotypic hit was inactive: 0.

As for `CC[C@@H](CO)NC(=O)[C@@H]1C=C2c3cccc4[nH]cc(c34)C[C@H]2N(C)C1` [methylergonovine maleate], the phenotypic hit was inactive: 0.

On to `CCCCOC(=O)c1ccccc1C(=O)OCCCC` [dibutyl phthalate], for which the phenotypic hit is inactive: 0. For `O=C(O)c1nn(Cc2ccc(Cl)cc2Cl)c2ccccc12` [lonidamine] the value was inactive: 0; for `C[C@@H]1C[C@@H]([C@H](O)CC2CC(=O)NC(=O)C2)C(=O)[C@@H](C)C1` [cycloheximide], inactive: 0. As for `COc1cc2c(cc1O)CCN[C@@H]2C` [salsoline], the figure is inactive: 0. As for `CC(=O)[O-].CC(=O)[O-].[Cd+2]` [cadmium acetate], the figure is inactive: 0.

Regarding `c1cncc([C@@H]2CCCCN2)c1` [anabasine hydrochloride], the phenotypic hit is inactive: 0. Regarding `CC(C)(C#N)O[C@@H]1O[C@H](CO)[C@@H](O)[C@H](O)[C@H]1O` [linamarin], the phenotypic hit was inactive: 0. As for `CC(C)(O)[C@@H]1[C@H]2OC(=O)[C@@H]1[C@]1(O)C[C@H]3O[C@]34C(=O)O[C@H]2[C@]14C` [picrotin], the figure is inactive: 0; as for `O=c1[nH]oc2c1CCNC2` [THIP hydrochloride], inactive: 0.

As for `C=C(C)[C@H]1Cc2c(ccc3c(=O)c4c(oc23)COc2cc(OC)c(OC)cc2-4)O1` [dehydrorotenone], the phenotypic hit is inactive: 0.

On to `Clc1ccc(Cl)cc1` [paradichlorobenzene], for which the phenotypic hit was inactive: 0. As for `COC(=O)C=C(C)OP(=O)(OC)OC` [mevinphos], the phenotypic hit is inactive: 0.

For the molecule `CCC(C)C(=O)OC1CC2(C)C(c3ccoc3)OC(=O)CC23OC2(C)OC34C(OC(=O)C(C)C)C3(O)C(OC(=O)C5(C)OC5C)C5(C)CC3(O)C(C)(C5CC(=O)OC)C14O2` (configuration not stated) [entandrophragmin], the phenotypic hit is inactive: 0. With `C=CCc1cc(OC)c2c(c1OC)OCO2` [apiole], the phenotypic hit was active: 1. As to `COc1cc2ccc(=O)oc2c2ccoc12` [sphondin], the phenotypic hit was inactive: 0.

On to `O=c1cccc2n1C[C@@H]1CNC[C@H]2C1` [cytisine], for which the phenotypic hit is inactive: 0. In the case of `CCC(=O)Nc1ccc(Cl)c(Cl)c1` [propanil], the phenotypic hit was inactive: 0. As for `CC[C@@H](C)C(=O)O[C@H]1[C@H](O)[C@H]2[C@@H](CN3C[C@@H](C)CC[C@H]3[C@@]2(C)O)[C@@H]2C[C@]34O[C@]5(O)[C@@H](OC(=O)[C@@](C)(O)CC)CC[C@@]3(C)[C@@H]5[C@@H](OC(C)=O)[C@@H](OC(C)=O)[C@H]4[C@@]21O` [protoveratrine a], the figure is inactive: 0; as for `O=C(O)CF` [sodium fluoroacetate], inactive: 0. With `O=C(CCCN1CCC2(CC1)C(=O)NCN2c1ccccc1)c1ccc(F)cc1` [Spiperone hydrochloride], the phenotypic hit is inactive: 0. Regarding `CC1(C)C(=O)[C@@H]2O[C@@H]2[C@@]2(C)C1C[C@@H](O)[C@]1(C)C2CC[C@@]2(C)[C@H](c3ccoc3)OC(=O)C3OC321` (stereo partly drawn) [1,2alpha-epoxydeacetoxydihydrogedunin], the phenotypic hit is inactive: 0. Turning to `O=[N+]([O-])O[C@H]1CO[C@H]2[C@@H]1OC[C@H]2O[N+](=O)[O-]` [isosorbide dinitrate], the phenotypic hit was inactive: 0. As for `CCC1(c2ccc(N)cc2)CCC(=O)NC1=O` (racemic) [(±)-p-Aminoglutethimide], the phenotypic hit was inactive: 0. Consider `ClC1=C(Cl)C2(Cl)C3C4CC(C5OC45)C3C1(Cl)C2(Cl)Cl` (configuration not stated) [endrin], for which the phenotypic hit is inactive: 0. Consider `ClC(Cl)=C(c1ccc(Cl)cc1)c1ccc(Cl)cc1` [dichlorodiphenyldichloroethylene], for which the phenotypic hit was active: 1. Consider `CCOC(=O)C1C(C=C(C)C)C1(C)C` (configuration not stated) [chrysanthemic acid, ethyl ester], for which the phenotypic hit is inactive: 0. For `CCOP(=S)(OCC)SCSCC` [phorate] the value was inactive: 0; for `CCC1C2CC3C4N(C)c5ccccc5C45CC(C2C5OC(C)=O)N3C1OC(C)=O` (configuration not stated) [ajmaline diacetate], inactive: 0; for `CN[C@@H](C)[C@@H](O)c1ccccc1` [(+)-Pseudoephedrine], inactive: 0.

With `C[C@@H]1O[C@@H](O[C@H]2CC[C@]3(C=O)[C@H]4CC[C@]5(C)[C@@H](C6=CC(=O)OC6)CC[C@]5(O)[C@@H]4CC[C@]3(O)C2)[C@H](O)[C@H](O)[C@H]1O` [convallatoxin], the phenotypic hit was inactive: 0.

For the molecule `CN1[C@@H]2C[C@@H](OC(=O)[C@H](CO)c3ccccc3)C[C@H]1[C@@H]1O[C@@H]12` [scopolamine hydrobromide], the phenotypic hit is inactive: 0. As to `CC1(C)C2CC(=O)[C@]3(C)C(CC[C@@]4(C)[C@H](c5ccoc5)OC(=O)C5OC543)[C@@]2(C)[C@@H](O)C[C@H]1O` (some centres not stated) [1,3-dideacetyl-7-deacetoxy-7-oxokhivorin], the phenotypic hit is inactive: 0. For `N[C@@H]1C[C@H]1c1ccccc1` [Tranylcypromine hydrochloride], the phenotypic hit was inactive: 0. As for `NCC(CC(=O)O)c1ccc(Cl)cc1` (racemic) [(±)-Baclofen], the figure is inactive: 0; as for `NNCc1cccc(O)c1` [3-hydroxybenzylhydrazine dihydrochloride], inactive: 0; as for `[O-][n+]1ccccc1[S-].[O-][n+]1ccccc1[S-].[Zn+2]` [pyrithione zinc], active: 1.

For `CCC(C)C(=O)O[C@@H]1C[C@@]2(C)[C@H](c3ccoc3)OC(=O)CC23OC2(C)O[C@]14[C@]1(C)[C@@H](CC(=O)OC)C5(C)CC1(O)[C@](O)(C5OC(=O)C1(C)OC1C)[C@@H](OC(C)=O)[C@]34O2` (some centres not stated) [utilin], the phenotypic hit was inactive: 0.

As for `COc1ccc2c(c1O)-c1c(OC)c(OC)cc3c1[C@H](C2)N(C)CC3` [isocorydine (+)], the phenotypic hit is inactive: 0. Take `NC(=O)c1cc([N+](=O)[O-])cc([N+](=O)[O-])c1` [nitromide]: the phenotypic hit is inactive: 0. In the case of `O=C1CC[C@@]2(O)[C@H]3Cc4ccc(O)c5c4[C@@]2(CCN3CC2CC2)[C@H]1O5` [naltrexone hydrochloride], the phenotypic hit was inactive: 0. Consider `CN[C@@H]1[C@@H](O)[C@@H](O[C@@H]2[C@@H](O)[C@H](O[C@H]3O[C@H](CN)CC[C@H]3N)[C@@H](N)C[C@H]2N)OC[C@]1(C)O.CN[C@@H]1[C@@H](O)[C@@H](O[C@@H]2[C@@H](O)[C@H](O[C@H]3O[C@H]([C@@H](C)N)CC[C@H]3N)[C@@H](N)C[C@H]2N)OC[C@]1(C)O.CN[C@@H]1[C@@H](O)[C@@H](O[C@@H]2[C@@H](O)[C@H](O[C@H]3O[C@H]([C@@H](C)NC)CC[C@H]3N)[C@@H](N)C[C@H]2N)OC[C@]1(C)O` [gentamicin sulfate], for which the phenotypic hit is inactive: 0.

The record behind these values is the supplement of paper PMC2702839.
